# Results as given in the supplement of paper PMC8728848.
# The other results are listed elsewhere or left out.
# B1: PX9961X-pdi-531-24-531 (Parabacteroides distasonis) (protein)
# chain: DLTEEIHSSVIAENYYNNAGEVMAAMMRPWGHFCGTMQVAQSPWSCNELSSDCAAWPQKGRHGYDNGDWIRLHRHQWIPTDGQVVDAWKKLFEGIGYANNFLTDTENIDFEALQVPMSKAQAQAEMRVYRAYCYWYVMDMFGTAPICEKIGEINPSSKSRAELFAWIEKELNESIPSLSESKTETYGRVSKWGAYALLARLYLNAEIYTGQARWDDCIAACDELAKGGFALDKKWNDTFRADNDKRSTEIIWSIVYDEVYAKGMGWYQRWLHYAHQTGWDLQSGPWNGLVTQPTFYDSFADNDLRKIEGFLIGKQYPRKVDENGNYYYDTTAEPLKGSEEYNGQDLVFVNYIKSMTEGEENSGARSIKYEIQPGTTGDMNNDWVMFRYSEVIYNKAEALMRKNGGKATQEVVDMINSVRQRSFKAEDWEKAKYTTATLTMDEFLAEKGREFAFEGIRRTDLVRFNKFVTTSWWDKTASNEPKRNIFPIPQRQLDANANLSPNEANSLF
# Assays:
# Experiment in all cases: glycan array binding signal (z-score within array); higher = stronger binding
# Conditions in all cases: glycan notation: IUPAC condensed, linker removed
# [1] = target: Neu5Ac(a2-3)Gal(b1-4)GlcNAc(b1-6)GalNAc
# In short: (§1)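 From the Consortium for Functional Glycomics database, 3228 arrays were curated, keeping only those whose protein sequence was available. Binding is given as a within-array Z-score averaged across arrays sharing a protein sequence and across linkers. Negative Z-scores can be read as non-binding.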
# [2] = target: Neu5Ac(a2-3)Gal(b1-4)GlcNAc(b1-6)[Gal(b1-3)]GalNAc
# In short: as §1
# [3] = target: Neu5Ac(a2-3)Gal(b1-4)GlcNAc(b1-6)[Neu5Ac(a2-3)Gal(b1-3)]GalNAc
# In short: as §1
# [4] = target: Neu5Ac(a2-3)Gal(b1-4)GlcNAc6S
# In short: as §1
# [5] = target: Neu5Ac(a2-3)Gal(b1-4)[Fuc(a1-3)]GlcNAc
# In short: as §1
# [6] = target: Neu5Ac(a2-3)Gal(b1-4)[Fuc(a1-3)]GlcNAc(b1-2)Man
# In short: as §1
# [7] = target: Neu5Ac(a2-3)Gal(b1-4)[Fuc(a1-3)]GlcNAc(b1-3)Gal
# In short: as §1
# [8] = target: Neu5Ac(a2-3)Gal(b1-4)[Fuc(a1-3)]GlcNAc(b1-3)Gal(b1-4)GlcNAc
# In short: as §1
# [9] = target: Neu5Ac(a2-3)Gal(b1-4)[Fuc(a1-3)]GlcNAc(b1-3)Gal(b1-4)[Fuc(a1-3)]GlcNAc(b1-3)Gal(b1-4)[Fuc(a1-3)]GlcNAc
# In short: as §1
# [10] = target: Neu5Ac(a2-3)Gal(b1-4)[Fuc(a1-3)]GlcNAc(b1-3)GalNAc
# In short: as §1
# [11] = target: Neu5Ac(a2-3)Gal(b1-4)[Fuc(a1-3)]GlcNAc(b1-6)[Gal(b1-3)]GalNAc
# In short: as §1
# [12] = target: Neu5Ac(a2-3)Gal(b1-4)[Fuc(a1-3)]GlcNAc(b1-6)[Neu5Ac(a2-3)Gal(b1-3)]GalNAc
# In short: as §1
# [13] = target: Neu5Ac(a2-3)Gal(b1-4)[Fuc(a1-3)]GlcNAc6S
# In short: as §1
# [14] = target: Neu5Ac(a2-3)Gal6S(b1-4)GlcNAc
# In short: as §1
# [15] = target: Neu5Ac(a2-3)Gal6S(b1-4)[Fuc(a1-3)]GlcNAc
# In short: as §1
# Neu5Ac(a2-3)GalNAc = target: Neu5Ac(a2-3)GalNAc
# In short: as §1
# [16] = target: Neu5Ac(a2-3)GalNAc(b1-4)GlcNAc
# In short: as §1
# [17] = target: Neu5Ac(a2-3)[GalNAc(b1-4)]Gal(b1-4)Glc
# In short: as §1
# [18] = target: Neu5Ac(a2-3)[GalNAc(b1-4)]Gal(b1-4)GlcNAc
# In short: as §1
# [19] = target: Neu5Ac(a2-3)[GalNAc(b1-4)]Gal(b1-4)GlcNAc(b1-3)GalNAc
# In short: as §1
# [20] = target: Neu5Ac(a2-3)[Neu5Ac(a2-6)]GalNAc
# In short: as §1
# Neu5Ac(a2-6)Gal = target: Neu5Ac(a2-6)Gal
# In short: as §1
# [21] = target: Neu5Ac(a2-6)Gal(b1-3)GlcNAc(b1-3)[Gal(b1-4)GlcNAc(b1-6)]Gal(b1-4)Glc
# In short: as §1
# Neu5Ac(a2-6)Gal(b1-4)Glc = target: Neu5Ac(a2-6)Gal(b1-4)Glc
# In short: as §1
# [22] = target: Neu5Ac(a2-6)Gal(b1-4)GlcNAc
# In short: as §1
# [23] = target: Neu5Ac(a2-6)Gal(b1-4)GlcNAc(b1-2)Man
# In short: as §1
# [24] = target: Neu5Ac(a2-6)Gal(b1-4)GlcNAc(b1-2)Man(a1-3)Man(b1-4)GlcNAc(b1-4)GlcNAc
# In short: as §1
# [25] = target: Neu5Ac(a2-6)Gal(b1-4)GlcNAc(b1-2)Man(a1-3)[Gal(b1-4)GlcNAc(b1-2)Man(a1-6)]Man(b1-4)GlcNAc(b1-4)GlcNAc
# In short: as §1
# [26] = target: Neu5Ac(a2-6)Gal(b1-4)GlcNAc(b1-2)Man(a1-3)[GlcNAc(b1-2)Man(a1-6)]Man(b1-4)GlcNAc(b1-4)GlcNAc
# In short: as §1
# [27] = target: Neu5Ac(a2-6)Gal(b1-4)GlcNAc(b1-2)Man(a1-3)[GlcNAc(b1-4)][Neu5Ac(a2-6)Gal(b1-4)GlcNAc(b1-2)Man(a1-6)]Man(b1-4)GlcNAc(b1-4)GlcNAc
# In short: as §1
# [28] = target: Neu5Ac(a2-6)Gal(b1-4)GlcNAc(b1-2)Man(a1-3)[Man(a1-6)]Man(b1-4)GlcNAc(b1-4)GlcNAc
# In short: as §1
# [29] = target: Neu5Ac(a2-6)Gal(b1-4)GlcNAc(b1-2)Man(a1-3)[Neu5Ac(a2-3)Gal(b1-4)GlcNAc(b1-2)Man(a1-6)]Man(b1-4)GlcNAc(b1-4)GlcNAc
# In short: as §1
# [30] = target: Neu5Ac(a2-6)Gal(b1-4)GlcNAc(b1-2)Man(a1-3)[Neu5Ac(a2-6)Gal(b1-4)GlcNAc(b1-2)Man(a1-6)]Man(b1-4)GlcNAc(b1-4)GlcNAc
# In short: as §1
# [31] = target: Neu5Ac(a2-6)Gal(b1-4)GlcNAc(b1-2)Man(a1-3)[Neu5Ac(a2-6)Gal(b1-4)GlcNAc(b1-2)Man(a1-6)]Man(b1-4)GlcNAc(b1-4)[Fuc(a1-6)]GlcNAc
# In short: as §1
# [32] = target: Neu5Ac(a2-6)Gal(b1-4)GlcNAc(b1-2)Man(a1-6)Man(b1-4)GlcNAc(b1-4)GlcNAc
# In short: as §1
# [33] = target: Neu5Ac(a2-6)Gal(b1-4)GlcNAc(b1-2)Man(a1-6)[Gal(b1-4)GlcNAc(b1-2)Man(a1-3)]Man(b1-4)GlcNAc(b1-4)GlcNAc
# In short: as §1
# [34] = target: Neu5Ac(a2-6)Gal(b1-4)GlcNAc(b1-2)Man(a1-6)[GlcNAc(b1-2)Man(a1-3)]Man(b1-4)GlcNAc(b1-4)GlcNAc
# In short: as §1
# [35] = target: Neu5Ac(a2-6)Gal(b1-4)GlcNAc(b1-2)Man(a1-6)[Man(a1-3)]Man(b1-4)GlcNAc(b1-4)GlcNAc
# In short: as §1
# [36] = target: Neu5Ac(a2-6)Gal(b1-4)GlcNAc(b1-2)[Neu5Ac(a2-6)Gal(b1-4)GlcNAc(b1-4)]Man(a1-3)[GlcNAc(b1-4)][Neu5Ac(a2-6)Gal(b1-4)GlcNAc(b1-2)[Neu5Ac(a2-6)Gal(b1-4)GlcNAc(b1-6)]Man(a1-6)]Man(b1-4)GlcNAc(b1-4)GlcNAc
# In short: as §1
# [37] = target: Neu5Ac(a2-6)Gal(b1-4)GlcNAc(b1-2)[Neu5Ac(a2-6)Gal(b1-4)GlcNAc(b1-4)]Man(a1-3)[GlcNAc(b1-4)][Neu5Ac(a2-6)Gal(b1-4)GlcNAc(b1-4)Man(a1-6)]Man(b1-4)GlcNAc(b1-4)GlcNAc
# In short: as §1
# [38] = target: Neu5Ac(a2-6)Gal(b1-4)GlcNAc(b1-2)[Neu5Ac(a2-6)Gal(b1-4)GlcNAc(b1-6)]Man(a1-6)[Neu5Ac(a2-6)Gal(b1-4)GlcNAc(b1-2)Man(a1-3)][GlcNAc(b1-4)]Man(b1-4)GlcNAc(b1-4)GlcNAc
# In short: as §1
# [39] = target: Neu5Ac(a2-6)Gal(b1-4)GlcNAc(b1-3)Gal(b1-3)GlcNAc
# In short: as §1
# [40] = target: Neu5Ac(a2-6)Gal(b1-4)GlcNAc(b1-3)Gal(b1-4)GlcNAc
# In short: as §1
# [41] = target: Neu5Ac(a2-6)Gal(b1-4)GlcNAc(b1-3)Gal(b1-4)GlcNAc(b1-2)Man(a1-3)[Neu5Ac(a2-6)Gal(b1-4)GlcNAc(b1-3)Gal(b1-4)GlcNAc(b1-2)Man(a1-6)]GalNAc
# In short: as §1
# [42] = target: Neu5Ac(a2-6)Gal(b1-4)GlcNAc(b1-3)Gal(b1-4)GlcNAc(b1-3)Gal(b1-4)GlcNAc
# In short: as §1
binder,measurement,setting,value
B1,glycan array binding signal (z-score),[1],-0.431
same,glycan array binding signal (z-score),[2],0.534
same,glycan array binding signal (z-score),[3],-0.568
same,glycan array binding signal (z-score),[4],-0.58
same,glycan array binding signal (z-score),[5],-0.313
same,glycan array binding signal (z-score),[6],-0.632
same,glycan array binding signal (z-score),[7],-0.709
same,glycan array binding signal (z-score),[8],0.562
same,glycan array binding signal (z-score),[9],0.295
same,glycan array binding signal (z-score),[10],2.11
same,glycan array binding signal (z-score),[11],1.2
same,glycan array binding signal (z-score),[12],0.962
same,glycan array binding signal (z-score),[13],-0.754
same,glycan array binding signal (z-score),[14],-0.562
same,glycan array binding signal (z-score),[15],-0.385
same,glycan array binding signal (z-score),Neu5Ac(a2-3)GalNAc,-0.246
same,glycan array binding signal (z-score),[16],-0.07
same,glycan array binding signal (z-score),[17],-0.049
same,glycan array binding signal (z-score),[18],-0.247
same,glycan array binding signal (z-score),[19],-0.439
same,glycan array binding signal (z-score),[20],-0.986
same,glycan array binding signal (z-score),Neu5Ac(a2-6)Gal,-0.587
same,glycan array binding signal (z-score),[21],-0.549
same,glycan array binding signal (z-score),Neu5Ac(a2-6)Gal(b1-4)Glc,0.033
same,glycan array binding signal (z-score),[22],-0.955
same,glycan array binding signal (z-score),[23],-0.14
same,glycan array binding signal (z-score),[24],-0.356
same,glycan array binding signal (z-score),[25],0.644
same,glycan array binding signal (z-score),[26],1.05
same,glycan array binding signal (z-score),[27],-0.738
same,glycan array binding signal (z-score),[28],-0.755
same,glycan array binding signal (z-score),[29],0.014
same,glycan array binding signal (z-score),[30],0.135
same,glycan array binding signal (z-score),[31],0.542
same,glycan array binding signal (z-score),[32],-0.137
same,glycan array binding signal (z-score),[33],-0.801
same,glycan array binding signal (z-score),[34],-0.316
same,glycan array binding signal (z-score),[35],-0.33
same,glycan array binding signal (z-score),[36],-0.359
same,glycan array binding signal (z-score),[37],-0.551
same,glycan array binding signal (z-score),[38],-0.658
same,glycan array binding signal (z-score),[39],-0.821
same,glycan array binding signal (z-score),[40],0.024
same,glycan array binding signal (z-score),[41],0.561
same,glycan array binding signal (z-score),[42],-0.299
